Source: PubChem BioAssay (NCATS)
Several values for one entry are separate records, joined by “and”; a condition that tells them apart may be missing. Identical values can stand only once. This list was built around the results that the source calls inconclusive (neither active nor inactive); the mix of calls is not that of the screen. A potency beside an inconclusive call is a rough fit, not a confirmed value. Activity calls are given as the source filed them. The call rests on the fitted dose curve; in most records, active means well fitted curve in the direction sought with a large enough effect; inconclusive means small, poorly fitted or top-dose-only effect, or another doubt; inactive means no such curve, though single readings can be large; an effect the other way counts as inactive or inconclusive.

How the values were obtained:
[1] = NS1 protein of Zika virus - qHTS assay to identify small molecule inhibitors in human HEK 293 cells (AID 1347053); further: nearly all actives have a fitted effect of over 55% in size
How it was run: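 Readout was TR-FRET using paired anti-NS1 antibodies after 24 h infection of HEK 293 cells with ZIKV MR766 (MOI = 0.5). Compound preceded virus by 1 h; reduced signal reflects lower NS1 expression.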

[2] = qHTS of pediatric cancer cell lines to identify multiple opportunities for drug repurposing: Primary screen for DAOY cells (AID 1347090); settings: DAOY medulloblastoma viability, CellTiter-Glo luminescence, 48 h; activity change, negative = cytotoxic: at 46 µM (top of the series) unless noted; further: nearly all actives have a fitted effect of over 55% in size
How it was run: (§1)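 Viability measured as metabolically active cells via CellTiter-Glo luminescence following 48 hours of compound exposure, 11-point dilutions in confirmatory testing. 500-1,000 cells/well plated 5 hours before dosing; controls were DMSO and 2.3 µM bortezomib.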

[3] = qHTS of pediatric cancer cell lines to identify multiple opportunities for drug repurposing: Primary screen for SJ-GBM2 cells (AID 1347091)
How it was run: as §1

[4] = qHTS of pediatric cancer cell lines to identify multiple opportunities for drug repurposing: Primary screen for A673 cells (AID 1347092); settings: A673 Ewing sarcoma viability, CellTiter-Glo ATP luminescence, 48 h; activity change, negative = cytotoxic: at 46 µM (top of the series); further: nearly all actives have a fitted effect of over 45% in size
How it was run: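 48 h compound exposure, A673, 500-1,000 cells/well, 37 degrees C/5% CO2. MIPE: 11-point, 0.78 nM-46 µM; NPC: 8-point, 0.59 nM-46 µM (final). Readout CellTiter-Glo luminescence after 15 min RT.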

[5] = qHTS of pediatric cancer cell lines to identify multiple opportunities for drug repurposing: Primary screen for BT-37 cells (AID 1347094)
How it was run: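 ATP-based luminescence (CellTiter-Glo) quantifies viability after a 48-hour exposure. Compounds are dosed across 8 or 11 final concentrations; DMSO and 2.3 µM bortezomib serve as controls.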

[6] = qHTS of pediatric cancer cell lines to identify multiple opportunities for drug repurposing: Primary screen for SK-N-MC cells (AID 1347093); settings: SK-N-MC viability, CellTiter-Glo luminescence, 48 h; activity change, negative = cytotoxic: at 46 µM (top of the series)
How it was run: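 Metabolically active cells were quantified by ATP-dependent luminescence (CellTiter-Glo, 15 min at room temperature) following 48 h treatment. Cells had been plated at 500-1,000 per well and settled for 5 h beforehand.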

[7] = qHTS of pediatric cancer cell lines to identify multiple opportunities for drug repurposing: Primary screen for TC32 cells (AID 1347089); further: nearly all actives have a fitted effect of over 60% in size
How it was run: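 In the primary qHTS, MIPE compounds were tested at 11 concentrations (0.78 nM to 46 µM) and NPC compounds at 8 (0.59 nM to 46 µM) on TC32 cells for 48 h. CellTiter-Glo luminescence gave viability.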
Potency means the concentration at half of the fitted maximal effect; tags describe the fitted curve by direction and shape.

Compound | Potency [1] | Potency [2] | Potency [3] | Potency [4] | Potency [5] | Potency [6] | Potency [7]
CC1(C)Cc2c(-c3ccccc3)c(-c3ccc(Cl)cc3)c(CC(=O)O)n2C1 | inconclusive: 37.2 µM [inhibitor, single point] | inconclusive: 29.6 µM [cytotoxic, single point] | inconclusive: 23.5 µM [cytotoxic, single point] | inconclusive: 37.2 µM [cytotoxic, single point] | inconclusive: 30.6 µM [cytotoxic, single point] | – | –
NC(=O)c1cccc(-c2cc(Nc3ccc(OC(F)(F)F)cc3)ncn2)c1 | inconclusive: 29.6 µM [inhibitor, single point] | inconclusive: 18.7 µM [cytotoxic, partial curve, poor fit] | inactive | inconclusive: 29.6 µM [cytotoxic, single point] | – | inactive | –
Cc1cccc2c1CC[C@H](CN1CCC(c3c(Cl)cccc3Cl)CC1)C[C@@H]2O | inconclusive: 37.2 µM [inhibitor, single point] | – | – | – | active: 30.6 µM | – | inconclusive: 9.3 µM [cytotoxic, full curve]
N#Cc1ccc(Oc2ccc3c(c2)COB3O)cc1 | inconclusive: 37.2 µM [inhibitor, single point] | – | inconclusive: 16.6 µM [cytotoxic, partial curve] | – | inconclusive: 19.3 µM [cytotoxic, partial curve, poor fit] | – | inactive
CN(C)CCOc1cc(-c2cn[nH]c2)ccc1NC(=O)C1COc2ccccc2O1 (centres undefined) | inconclusive: 0.418 µM [inhibitor, single point] | inactive | – | – | – | – | –
COCCOc1nc(-c2ccc(Cl)c(Cl)c2)n(-c2ccc(NC(=O)CCl)cc2)n1 | inconclusive: 37.2 µM [inhibitor, partial curve, poor fit] | inconclusive: 29.6 µM [cytotoxic, single point] | active: 16.6 µM | – | inconclusive: 15.3 µM [cytotoxic, partial curve] | active: 4.69 µM | –
CCCNCC(O)COc1ccccc1C(=O)CCc1ccccc1 (centres undefined) | inconclusive: 33.2 µM [inhibitor, single point] | – | inconclusive: 16.8 µM [cytotoxic, single point] | inconclusive: 23.5 µM [cytotoxic, single point] | – | inconclusive: 37.2 µM [cytotoxic, partial curve, poor fit] and inconclusive: 33.5 µM [cytotoxic, single point] | –
O=c1cc(N2CCOCC2)oc2c(-c3cccc4c3sc3ccccc34)cccc12 | active: 18.7 µM | active: 18.7 µM | – | active: 14.8 µM | – | – | –
CCCC(CCC)C(=O)O | inactive and inconclusive: 3.98 µM [inhibitor, partial curve, poor fit] | inconclusive: 37.2 µM [cytotoxic, single point] | – | inconclusive: 2.35 µM [cytotoxic, full curve, poor fit] | – | – | –
Cc1noc(NS(=O)(=O)c2ccc(N)cc2)c1C | inactive | – | inactive | – | – | – | –
CCOC(=O)c1c(CSc2ccccc2)n(C)c2cc(Br)c(O)c(CN(C)C)c12 | inconclusive: 33.2 µM [inhibitor, single point] | – | inconclusive: 33.2 µM [cytotoxic, single point] | – | inconclusive: 27.3 µM [cytotoxic, single point] | inconclusive: 37.2 µM [cytotoxic, single point] | –
Cc1ccc([C@@H]2O[C@H](CO)[C@@H](O)[C@H](O)[C@@H]2O)cc1Cc1ccc(-c2ccc(F)cc2)s1 | inconclusive: 37.2 µM [inhibitor, single point] | – | inconclusive: 33.2 µM [cytotoxic, single point] | inconclusive: 23.5 µM [cytotoxic, single point] | inconclusive: 43.2 µM [cytotoxic, partial curve, poor fit] | inconclusive: 37.2 µM [cytotoxic, single point] | –
CCCCCCCCCCCCCC(=O)N[C@H](CO)[C@H](O)c1ccc([N+](=O)[O-])cc1 | inconclusive: 37.2 µM [inhibitor, single point] | – | inconclusive: 29.6 µM [cytotoxic, single point] | inconclusive: 29.6 µM [cytotoxic, single point] | – | – | –
CC[C@@H]([C@H](C)O)n1ncn(-c2ccc(N3CCN(c4ccc(OCC5CO[C@@](Cn6cncn6)(c6ccc(F)cc6F)C5)cc4)CC3)cc2)c1=O (some centres undefined) | inconclusive: 37.2 µM [inhibitor, single point] | inconclusive: 18.7 µM [cytotoxic, single point] | active: 18.7 µM | – | inconclusive: 24.3 µM [cytotoxic, partial curve] | – | –
NC(=O)c1nnn(Cc2cc(Cl)c(C(=O)c3ccc(Cl)cc3)c(Cl)c2)c1N | inconclusive: 37.2 µM [inhibitor, single point] | inconclusive: 23.5 µM [cytotoxic, single point] | – | – | inconclusive: 27.3 µM [cytotoxic, partial curve] | – | –
CN1CCN(CCOc2cc(OC3CCOCC3)c3c(Nc4c(Cl)ccc5c4OCO5)ncnc3c2)CC1 | inconclusive: 33.2 µM [inhibitor, single point] | active: 18.7 µM | – | active: 11.8 µM | – | active: 11.8 µM | –
Cc1cc(-c2ccc(CC(=O)Nc3ccc(-c4cccnc4)cc3)cc2)ccn1 | inconclusive: 37.2 µM [inhibitor, single point] | inconclusive: 18.7 µM [cytotoxic, partial curve] | inconclusive: 26.4 µM [cytotoxic, single point] | – | inactive | – | –
O=C(Nc1cccnc1)N1CCC(Cc2cccc(Oc3ccc(C(F)(F)F)cn3)c2)CC1 | inconclusive: 37.2 µM [inhibitor, partial curve, poor fit] | active: 14.8 µM | – | – | inconclusive: 15.3 µM [cytotoxic, partial curve, poor fit] | inconclusive: 29.6 µM [cytotoxic, single point] | –
CNCCCC12CCC(c3ccccc31)c1ccccc12 | inconclusive: 15.8 µM [inhibitor, partial curve, poor fit] and inconclusive: 35.5 µM [inhibitor, single point] | inconclusive: 13.3 µM [cytotoxic, partial curve, poor fit] and inconclusive: 18.7 µM [cytotoxic, partial curve, poor fit] | inconclusive: 29.9 µM [cytotoxic, single point] and inconclusive: 20.9 µM [cytotoxic, single point] | – | inconclusive: 21.9 µM [cytotoxic, single point] and inconclusive: 19.3 µM [cytotoxic, partial curve] | – | –
O=C1Nc2ccc(Cl)cc2C(C#CC2CC2)(C(F)(F)F)O1 (centres undefined) | inconclusive: 37.2 µM [inhibitor, single point] | – | inconclusive: 33.2 µM [cytotoxic, partial curve, poor fit] | inconclusive: 29.6 µM [cytotoxic, single point] | inconclusive: 34.3 µM [cytotoxic, single point] | active: 13.2 µM | –
CCC[C@H](N[C@@H](C)C(=O)N1[C@@H]2CCCC[C@H]2C[C@H]1C(=O)O)C(=O)OCC | inactive | – | inconclusive: 14.8 µM [cytotoxic, partial curve] | – | inconclusive: 19.3 µM [cytotoxic, partial curve] | active: 3.32 µM | –
O=C(O)C=Cc1ccc(Cn2ccnc2)cc1 | inconclusive: 1.32 µM [inhibitor, single point] | inconclusive: 29.6 µM [cytotoxic, single point] | – | – | – | inactive | –
Nc1ncnc2c1nc(Cl)n2[C@@H]1O[C@H](CO)[C@@H](O)[C@@H]1O | inconclusive: 23.5 µM [inhibitor, single point] | inconclusive: 18.7 µM [cytotoxic, single point] | – | – | inconclusive: 21.7 µM [cytotoxic, partial curve] | – | –
CC(=O)O[C@]1(C(C)=O)CC[C@@H]2[C@@H]3C[C@H](C)C4=CC(=O)CC[C@]4(C)[C@H]3CC[C@@]21C | inconclusive: 37.2 µM [inhibitor, single point] | inconclusive: 29.6 µM [cytotoxic, single point] | – | active: 18.7 µM | – | – | –
C[C@H]1[C@H](NC(=O)C(=NOC(C)(C)C(=O)O)c2csc(N)n2)C(=O)N1S(=O)(=O)O | inactive | – | inactive | – | – | – | –
COC(=O)N[C@H](C(=O)N1CCC[C@@H]1c1ncc(-c2ccc(-c3ccc(-c4cnc([C@@H]5CCCN5C(=O)[C@@H](NC(=O)OC)C(C)C)[nH]4)cc3)cc2)[nH]1)C(C)C | inconclusive: 37.2 µM [inhibitor, single point] | inconclusive: 37.2 µM [cytotoxic, single point] | – | – | inconclusive: 34.3 µM [cytotoxic, single point] | – | –
C=CCc1ccc(O)c(-c2ccc(O)c(CC=C)c2)c1 | inconclusive: 37.2 µM [inhibitor, single point] | inconclusive: 23.5 µM [cytotoxic, partial curve] | inconclusive: 29.6 µM [cytotoxic, single point] | – | inconclusive: 27.3 µM [cytotoxic, single point] | active: 23.5 µM | –
